Test results published in paper PMC6919601, “Identification of Plasmodium dipeptidyl aminopeptidase allosteric inhibitors by high throughput screening” (PLoS ONE, 2019).
The campaign covered roughly 110,000 compounds. About 230 (0.21%) showed an effect of 50% or more. Some of the results follow.

The compounds below were run against DPAP1 (Plasmodium falciparum, UniProt Q8IIJ9) (assay: primary screen, percent inhibition; read by cleavage of a fluorogenic dipeptide substrate; higher = more effect of the substance).
Design: species or system P. falciparum D10 trophozoite lysates; single well
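Also: 30 min substrate incubation versus DMSO and 10 µM JCP410 controls.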

DPAP1, sequence (Q8IIJ9 whole entry, looked up): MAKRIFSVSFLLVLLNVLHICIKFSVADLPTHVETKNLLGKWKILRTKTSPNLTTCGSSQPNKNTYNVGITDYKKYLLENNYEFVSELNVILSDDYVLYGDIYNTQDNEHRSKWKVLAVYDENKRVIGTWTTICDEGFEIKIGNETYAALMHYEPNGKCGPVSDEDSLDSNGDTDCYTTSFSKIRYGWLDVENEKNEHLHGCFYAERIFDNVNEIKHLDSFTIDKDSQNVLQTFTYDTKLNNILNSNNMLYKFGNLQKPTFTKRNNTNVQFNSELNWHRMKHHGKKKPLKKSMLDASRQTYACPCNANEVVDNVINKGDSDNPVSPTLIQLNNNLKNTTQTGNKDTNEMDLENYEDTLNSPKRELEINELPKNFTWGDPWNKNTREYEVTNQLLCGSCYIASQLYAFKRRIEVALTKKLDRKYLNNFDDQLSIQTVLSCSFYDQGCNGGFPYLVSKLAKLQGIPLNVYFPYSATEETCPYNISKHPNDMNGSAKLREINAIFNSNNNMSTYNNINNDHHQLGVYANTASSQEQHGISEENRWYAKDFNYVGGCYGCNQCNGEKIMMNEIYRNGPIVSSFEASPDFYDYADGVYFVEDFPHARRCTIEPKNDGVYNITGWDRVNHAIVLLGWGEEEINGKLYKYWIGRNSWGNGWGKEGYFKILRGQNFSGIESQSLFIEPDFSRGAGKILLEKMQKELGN

Structure (SMILES) | % Inhibition @ 10 uM
CC[C@H](NC(=O)[C@H](CS(=O)(=O)Cc1ccccc1)NC(=O)N1CCOCC1)C(=O)CS(=O)(=O)c1ccccc1 | -5.21%
O=C(c1ccccc1C(=O)N1CCN(c2ccccc2F)CC1)N1CCN(c2ccccc2F)CC1 | 0.749%
O=c1ccc2cc3c4c(oc3cc2o1)CCCC4 | 2.21%
O=C(CN1Cc2ccccc2C1=O)N1CCN(Cc2ccccc2)CC1 | 1.86%
COc1ccc(C2=N/C(=C\c3c(OC)ccc4ccccc34)C(=O)O2)cc1 | 4.38%
c1cc(-c2nn[nH]n2)ccn1 | 3.5%
CCOC(=O)N1CCN(Cc2ccc3c(c2)c2ccccc2n3CC)CC1 | 2.1%
COc1ccccc1-c1cc(-c2ccccc2)nc(SCC(=O)c2ccc(Cl)cc2)c1C#N | -4%
CC(NC(=O)c1cnn(-c2ccccc2)c1-n1cccc1)c1ccc2c(c1)OCCO2 (stereo not drawn) | 3.4%
Fc1cccc2c1N[C@@H](c1ccccn1)[C@H]1CC=C[C@@H]21 | 2.08%
O=S(=O)(c1ccccc1)c1nnn2c1nc(N1CCC(N3CCCCC3)CC1)c1ccccc12 | -1.6%
CN(C)c1nc(C(N)=O)nc(N2CCOCC2)n1 | 0.628%
Cc1ccccc1CCNCc1c(C(=O)O)n(Cc2ccccc2C)c2ccccc12 | -3.5%
Cc1ccc(NC(=O)CN2C(=O)S/C(=C\c3ccc4c(c3)n(C)c(=O)n4C)C2=O)cc1 | 0.161%
CSCCC(NC(=O)OCc1ccccc1)C(=O)O (stereo not drawn) | -4.67%
CCCCCCC1NC(C(=O)O)Cc2c1[nH]c1ccccc21 (stereo not drawn) | -1.45%
CC1CC(C)CN(C(=O)CSc2nnc(-c3ccc(F)cc3)o2)C1 (stereo not drawn) | 1.8%
CNC(=S)N(CCc1c(C)[nH]c2ccc(F)cc12)Cc1cccnc1 | -2.01%
CC(C)C[C@H](NC(=O)N1CCCN(C)CC1)C(=O)NCC#N | -5.2%
COc1ccc(/C=C2\C(=O)N(c3ccc([N+](=O)[O-])cc3)N=C2c2ccccc2)c(OC)c1 | -5.51%
CCOc1ccc(-c2nonc2NC(=O)c2ccc(C(C)(C)C)cc2)cc1 | -1.11%
Cc1ccc(Oc2ccc(NC(=O)c3ccccc3C(=O)O)cc2)cc1 | -1.07%
O=C(CN1C(=O)S/C(=C/c2cc(Cl)ccc2O)C1=O)N1CCN(c2ccccc2)CC1 | 10.4%
O=S(=O)(Nc1nc2ccccc2s1)c1cccs1 | 0.0654%
CCn1c(NC(=O)c2nn(C)cc2Br)nc2ccccc21 | 0.826%

Structure (SMILES) | % Inhibition @ 10 uM
Cc1ccc(S(=O)(=O)NCCN2CCN(S(=O)(=O)c3ccc(C)c(C)c3C)CC2)c(C)c1C | 1.62%
COc1ccc2cc(-c3nc4ccccc4[nH]3)c(=N)oc2c1 | 2.91%
O=C(CCn1ccc2cc(S(=O)(=O)N3CCCCCC3)ccc21)N1CCN(c2ccccn2)CC1 | 1.59%
CN1C(=O)c2ccccc2C(C(=O)N2CCc3ccccc3C2)C1c1cccs1 (stereo not drawn) | -4.49%
COc1ccc2nc(NC(=O)CCn3ccc(C)n3)sc2c1 | -6.5%
Oc1nnc(Cc2ccccc2)c2ccccc12 | -0.807%
O=C(Nc1ccncc1)C(=O)Nc1ccncc1 | 0.827%
CCOC(=O)/C=C(\C)N1N=C2c3ccc(OC)cc3CCC2C1c1cccc(F)c1 (stereo not drawn) | 73.1%
CC(=O)C1=C(O)C(=O)N(CCNCCO)C1c1ccc(Cl)cc1 (stereo not drawn) | -9.45%
Cn1c(=O)c2c(ncn2CC(=O)Nc2ccc(F)cc2)n(C)c1=O | -2.22%
COc1ccc(C)cc1N(CC(=O)Nc1ccccc1Cl)S(C)(=O)=O | -1.61%
COc1ccc(C2Nn3c(nnc3-c3ccccc3)SC2C(=O)NCC(C)C)cc1Cl (stereo not drawn) | -3.53%
O=C(O)C12CC3CC(C1)CC(n1cnc(Cl)n1)(C3)C2 | 2.32%
COc1cc2c(cc1OC)Sc1ccc(Cl)cc1C(=O)C2 | -1.11%
C=CCc1ccccc1OCc1cc(=O)n2oc(C)cc2n1 | -9.6%
CCOc1ccc(CCNc2ncnc3c2oc2ccccc23)cc1OCC | -4.49%
COCc1cc(C)nc2sc(C(=O)Nc3ccc(Cl)cc3)c(N)c12 | 15.1%
CCOC(=O)c1c(NC(=O)c2ccc3c(c2)CC(c2ccccc2)OC3=O)sc(C)c1C (stereo not drawn) | -2.92%
COc1cccc(CNC(=O)c2ccc(CS(=O)c3ccccc3Cl)o2)c1OC (stereo not drawn) | -0.154%
N#Cc1cnn(-c2cc(Oc3ccccc3)nc(-c3ccccc3)n2)c1N | -0.941%
Cc1ccccc1NC(=O)CN(c1ccccc1Cl)S(=O)(=O)c1ccccc1 | 3.09%
OCCN(Cc1ccccc1)Cc1ccc(F)cc1 | -1.5%
Cc1ccc(-c2noc(CN(C(=O)C3CCCCC3)C(C)C)n2)cc1 | -3.06%
N#CCCNC(=O)c1cccc([N+](=O)[O-])c1 | 4.54%
Cc1nn(C(C)C(=O)NCc2cccnc2)c(=O)c2nn(-c3ccccc3)c(C)c12 (stereo not drawn) | -5.35%

Structure (SMILES) | % Inhibition @ 10 uM
CCN(CC)CCNC(=O)CCc1c(C)nc2c(c(C)nn2-c2ccc(C)cc2)c1C | -4.24%
CCN(CC)S(=O)(=O)c1cc(C(N)=O)ccc1Br | 10.7%
N#CC1=C(SCc2ccccc2)NC(=O)CC1c1ccc(Cl)cc1Cl (stereo not drawn) | -4.98%
Cc1ccc(C)c(NS(=O)(=O)c2ccc(NC(=O)CN3C(=O)c4cccc5cccc3c45)cc2)c1 | 1.62%
N=c1ccn(Cc2ccccc2Cl)cc1 | 1.55%
O=C(CCN1N=C(c2ccccc2)CCC1=O)NCCCN1CCOCC1 | -6.4%
COc1cccc(C(=O)Nc2ccc(C)c(Cl)c2)c1 | 1.71%
CC(=O)C(C#N)c1ccc(Cl)cc1 (stereo not drawn) | -2.54%
COc1ccc(C2(C(=O)Nc3ccc(F)cc3)CCOCC2)cc1OC | -0.171%
Cc1ccc(/C=C2/C(=N)N3C(=NC2=O)SN=C3S(=O)(=O)CC(C)C)o1 | 0.163%
COc1ccc(C(C#N)C(C)=O)cc1 (stereo not drawn) | 3.24%
Cc1nc2ncnn2c(C)c1CCC(=O)N1CCN(C(=O)c2ccco2)CC1 | -2.25%
COc1ccc(CNC(=O)CNS(=O)(=O)c2ccc3nc(C)sc3c2)cc1 | -2.45%
COc1ccc(CNC(=O)CN(c2cc(Cl)cc(Cl)c2)S(=O)(=O)c2ccccc2)cc1 | 0.795%
CCCCOC(=O)COc1cc(=O)oc2ccccc12 | 6.47%
COc1ccc2c(c1)C(=O)C(C1(O)C(=O)Nc3ccccc31)CC2 (stereo not drawn) | -0.622%
O=C1c2ccccc2C(=O)N1Cc1ccc(S(=O)(=O)NC2CCCCCCC2)cc1 | -3.48%
COc1ccc(C(=O)/N=c2\sc3c(n2C)-c2ccccc2CC3)cc1OC | -4.02%
Cc1cc(C)nc(Nc2n[nH]c(COc3ccc(Cl)cc3)n2)n1 | 4.58%
CC(C)(C)C(=O)Nc1ccccc1C(=O)Nc1ccccc1Br | 3.8%
COc1ccc(C(=O)Nc2cc(C)c(C)cc2O)cc1 | -7.69%
COc1ccc(OC)c(CNCc2c(C(=O)O)n(Cc3ccccc3C)c3cc(OC)ccc23)c1 | 0.616%
Cc1cc(NCCN2CCCCC2)c2ccc3ccccc3c2n1 | -2.14%
OCC1CCCCN1Cc1ccsc1 (stereo not drawn) | 2.22%
COc1ccc(CCNC(=O)c2ccc3c(SCC(=O)O)c4c(nc3c2)CCCC4)cc1OC | 4.15%

Structure (SMILES) | % Inhibition @ 10 uM
C=CCNC(=O)/C=C/c1ccc(OC)c(OC)c1 | 1.25%
O=C(c1cccc(C(=O)N2CCCc3ccccc32)c1)N1CCCc2ccccc21 | -3.8%
CCOC(=O)c1cc(-c2ccc(OC)cc2)n(CCC(=O)N2CCn3c2nc2ccccc23)c1C | -0.668%
Cc1ccccc1Cn1cc(CCCC(=O)O)c2ccccc21 | 15.6%
Cc1ccnc(NC(=O)Cn2ncc3c2-c2cc(C)ccc2OC3)c1 | -0.405%
CC(C)C[C@@H](C(=O)NC1(C#N)CC1)c1cccc(-c2ccc(N3CCN(CC(F)(F)F)CC3)cc2)c1 | 1.7%
Cc1ccc(C2=N/C(=C\c3ccc4c(c3)OCO4)C(=O)O2)cc1 | 1.47%
CCC(C)c1ccccc1OCC(=O)Nc1ccccc1C#N (stereo not drawn) | -1.89%
OC1CCCN(Cc2ccccc2Br)C1 (stereo not drawn) | -2.81%
CS(=O)(=O)c1ncc(Cl)c(C(=O)N(Cc2ccccc2)c2ccccn2)n1 | -6.85%
CC12CN3CC(c4ccccc4)(CN(C1)C3c1ccc(F)cc1)C2=O (stereo not drawn) | -3.08%
COc1ccc2cc(Br)ccc2c1CC(=O)Nc1ccc(Cl)cn1 | -0.25%
CC1CCN(C(=O)CSc2nnc(Cc3cccn3C)n2-c2cccc(C(F)(F)F)c2)CC1 | 0.44%
COc1ccc(-c2cs/c(=N\c3ccccc3)n2CCCN(C)C)cc1 | -7.34%
COc1cc(N)c(C)cc1NC(C)=O | 0.912%
CC1CCN(S(=O)(=O)c2ccc(-c3ccc(S(=O)(=O)N4CCC(C)CC4)cc3)cc2)CC1 | 4.93%
COCCCN1COc2ccc3c(C)c(Cc4ccccc4)c(=O)oc3c2C1 | 0.723%
CCOc1ccc(C(=O)Nc2ccccc2F)cc1Br | 2.44%
CCC(=O)Nc1ccc(Cl)c(-c2nc3ncccc3o2)c1 | 5.12%
CCC(C)N1C(=O)S/C(=C/c2cc3c(cc2OC)OCO3)C1=O (stereo not drawn) | 1.86%
CCCCCc1nnc(NC(=O)Nc2[nH]c(C)c(C(=O)OCC)c2C)s1 | -0.671%
CCOC(=O)c1cnc2c(Cl)c(Cl)ccc2c1NCCN(C)C | -6.86%
Cc1ccc(C(=O)Nc2ccc3c(c2)OCO3)cc1 | -3.44%
CC(C)OCCCNC(=O)CCCCCNc1nc(S)nc2ccccc12 | -4.1%
